From the supplement of paper PMC7125110 come the findings set out here.

B1: glmS ribozyme (parent)
chain: AUAAAAGCGCCAGAACUACAGAAAUGUAGUUGACGAGGAGGAGGUUUAUCGAAUUUUCGGCGGAUGCCUCCAAA

What all share (settings): with glucosamine-6-phosphate
The variants in series [1] derive from B1. Kind of series: self-cleavage kobs at 40 uM GlcN6P; higher = faster cleavage; RNA array. In a few lines: (§1)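 On sequenced MiSeq chips, barcoded ribozyme variants were made in situ by E. coli RNA polymerase and followed at 37 °C through a hybridised Cy3 probe. Glucosamine-6-phosphate was flowed in at 40 μM to 10 mM in HEPES/KCl/Mg(OAc)2 buffer. Exponential fits to normalised per-tile medians gave kobs, and weighted Michaelis–Menten fits gave kcat and KM.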

Series [2] covers variants of B1. Kind of series: self-cleavage kobs at 640 uM GlcN6P; higher = faster cleavage; RNA array. The method in brief: as §1
Variants of B1 are the subject of series [3]. Kind of series: self-cleavage kobs at 160 uM GlcN6P; higher = faster cleavage; RNA array. The method in brief: as §1
The variants in series [4] derive from B1. Briefly: self-cleavage kobs at 10000 uM GlcN6P; higher = faster cleavage; RNA array. The method in brief:
as §1

Variants of B1 are the subject of series [5]. Briefly: self-cleavage kobs at 2500 uM GlcN6P; higher = faster cleavage; RNA array. In a few lines:
as §1

± gives the standard error. This sample is rich in variants without activity. Bounds are passed on as bounds.

Regarding AUAAAAGCGCCAGAACUACAGAAAUGUAGUUGACGAGGAGGAGGUUUAUCGCAUUUUCGACGGAUACCUCCAAA [A52C G60A G66A], the “self-cleavage kobs at 40 uM GlcN6P” value in series [1] is below 1e-05 s⁻¹. Also, in series [2], the “self-cleavage kobs at 640 uM GlcN6P” value was below 1e-05 s⁻¹. The “self-cleavage kobs at 160 uM GlcN6P” value in series [3] is below 1e-05 s⁻¹.
In the case of AUAAAAGCGCCAGAACUACAGAAAUGUAGUUGACGAGGAGGAGGUUUAUCGCAUUUUCGGCGUAUGCCUCCAAA [A52C G63U], the “self-cleavage kobs at 40 uM GlcN6P” value in series [1] is below 1e-05 s⁻¹. Moreover, the “self-cleavage kobs at 160 uM GlcN6P” value in series [3] is below 1e-05 s⁻¹. In addition, the “self-cleavage kobs at 10000 uM GlcN6P” value in series [4] is below 1e-05 s⁻¹.
Consider AUAAAAGCGCCAGAACUACAGAAAUGUAGUUGACGAGGAGGAGGUUUAUCGUAUUUUCAGCGGAUGCCUCCAAA [A52U G59A], for which, in series [1], the “self-cleavage kobs at 40 uM GlcN6P” value is below 1e-05 s⁻¹. Moreover, the “self-cleavage kobs at 640 uM GlcN6P” value in series [2] is below 1e-05 s⁻¹. In addition, in series [3], the “self-cleavage kobs at 160 uM GlcN6P” value was below 1e-05 s⁻¹.
As for AUAAAAGCGCCAGAACUACAGAAAUGUAGUUGACGAGGAGGAGGUUUAUCGCAUUUUCGGCGGAUGCCUUCAAA [A52C C70U], the “self-cleavage kobs at 40 uM GlcN6P” value in series [1] was below 1e-05 s⁻¹.
Regarding AUAAAAGCGCCAGAACUACAGAAAUGUAGUUGACGAGGAGGAGGUUUAUCGUAUUUUCGCCGGGUGACUCCAAA [A52U G60C A64G C67A], in series [1], the “self-cleavage kobs at 40 uM GlcN6P” value was below 1e-05 s⁻¹.
Consider AUAAAAGCGCCAGAACUACAGAAAUGUAGUUGACGAGGAGGAGGUUUAUCGCUUUUUCGGCGGAUGCCUCCAAA [A52C A53U], for which the “self-cleavage kobs at 40 uM GlcN6P” value in series [1] is below 1e-05 s⁻¹. Moreover, in series [2], the “self-cleavage kobs at 640 uM GlcN6P” value is below 1e-05 s⁻¹. For the same variant, in series [3], the “self-cleavage kobs at 160 uM GlcN6P” value was below 1e-05 s⁻¹.
As to AUAAAAGCGCCAGAACUACAGAAAUGUAGUUGACGAGGAGGAGGUUUAUCGUUUUUUCGGCGGAUGCCUCCAAA [A52U A53U], in series [1], the “self-cleavage kobs at 40 uM GlcN6P” value is below 1e-05 s⁻¹. The “self-cleavage kobs at 640 uM GlcN6P” value in series [2] came out at 2.65e-05 ± 1e-05 s⁻¹. In addition, the “self-cleavage kobs at 2500 uM GlcN6P” value in series [5] was determined as 8.03e-05 ± 1.2e-05 s⁻¹. Besides, the “self-cleavage kobs at 10000 uM GlcN6P” value in series [4] stood at 0.000148 ± 1.7e-05 s⁻¹.
Taken in the same sequence, the figures for AUAAAAGCGCCAGAACUACAGAAAUGUAGUUGACGAGGAGGAGGUUUAUCGCAUACUCGGCGGAUGCCUCCAAA [A52C U55A U56C] were below 1e-05 s⁻¹, below 1e-05 s⁻¹, below 1e-05 s⁻¹ and below 1e-05 s⁻¹.
With AUAAAAGCGCCAGAACUACAGAAAUGUAGUUGACGAGGAGGAGGUUUAUCGCAUUUUCGGCGGAUUCCUCCAAA [A52C G66U], the “self-cleavage kobs at 40 uM GlcN6P” value in series [1] is below 1e-05 s⁻¹. Also, the “self-cleavage kobs at 160 uM GlcN6P” value in series [3] was below 1e-05 s⁻¹. Besides, in series [4], the “self-cleavage kobs at 10000 uM GlcN6P” value was below 1e-05 s⁻¹.
For AUAAAAGCGCCAGAACUACAGAAAUGUAGUUGACGAGGAGGAGGUUUAUCGCAUAUUCGGCGUAUGCCUCCAAA [A52C U55A G63U], the “self-cleavage kobs at 40 uM GlcN6P” value in series [1] was below 1e-05 s⁻¹. The “self-cleavage kobs at 640 uM GlcN6P” value in series [2] is below 1e-05 s⁻¹.
Turning to AUAAAAGCGCCAGAACUACAGAAAUGUAGUUGACGAGGAGGAGGUUUAUCGUAUUUUCGACGGAUGCCUCCAAA [A52U G60A], the “self-cleavage kobs at 40 uM GlcN6P” value in series [1] was below 1e-05 s⁻¹. Moreover, the “self-cleavage kobs at 640 uM GlcN6P” value in series [2] is below 1e-05 s⁻¹. In series [3], the “self-cleavage kobs at 160 uM GlcN6P” value is below 1e-05 s⁻¹. The “self-cleavage kobs at 10000 uM GlcN6P” value in series [4] is below 1e-05 s⁻¹.
As for AUAAAAGCGCCAGAACUACAGAAAUGUAGUUGACGAGGAGGAGGUUUAUCGCAUUUUCGGCGGCUGGCUCCAAA [A52C A64C C67G], the “self-cleavage kobs at 40 uM GlcN6P” value in series [1] is below 1e-05 s⁻¹. In series [4], the “self-cleavage kobs at 10000 uM GlcN6P” value is below 1e-05 s⁻¹.
In the case of AUAAAAGCGCCAGAACUACAGAAAUGUAGUUGACGAGGAGGAGGUUUAUCGCAUUUUCGGCGGAUGCCUCCAAA [A52C], in series [1], the “self-cleavage kobs at 40 uM GlcN6P” value was below 1e-05 s⁻¹. In addition, in series [2], the “self-cleavage kobs at 640 uM GlcN6P” value was found to be 1.03e-05 ± 3.3e-06 s⁻¹. The “self-cleavage kobs at 160 uM GlcN6P” value in series [3] was below 1e-05 s⁻¹. The “self-cleavage kobs at 2500 uM GlcN6P” value in series [5] amounted to 2.17e-05 ± 1.5e-06 s⁻¹. Moreover, the “self-cleavage kobs at 10000 uM GlcN6P” value in series [4] came to 2.56e-05 ± 1.3e-06 s⁻¹.
With AUAAAAGCGCCAGAACUACAGAAAUGUAGUUGACGAGGAGGAGGUUUAUCGGAUUUUCGGCGGAUGCCUCCAAA [A52G], in series [1], the “self-cleavage kobs at 40 uM GlcN6P” value came to 3.36e-05 ± 1e-06 s⁻¹. Moreover, the “self-cleavage kobs at 640 uM GlcN6P” value in series [2] is 0.000385 ± 9.1e-06 s⁻¹. Besides, the “self-cleavage kobs at 160 uM GlcN6P” value in series [3] is 0.000104 ± 3.3e-06 s⁻¹. Also, the “self-cleavage kobs at 2500 uM GlcN6P” value in series [5] came out at 0.00127 ± 5.6e-05 s⁻¹. Besides, the “self-cleavage kobs at 10000 uM GlcN6P” value in series [4] amounted to 0.0022 ± 6.2e-05 s⁻¹.
On to AUAAAAGCGCCAGAACUACAGAAAUGUAGUUGACGAGGAGGAGGUUUAUCGGAUUUUCGGCGAAUGCCUCCAAA [A52G G63A], for which the “self-cleavage kobs at 40 uM GlcN6P” value in series [1] was below 1e-05 s⁻¹. The “self-cleavage kobs at 160 uM GlcN6P” value in series [3] is below 1e-05 s⁻¹. The “self-cleavage kobs at 2500 uM GlcN6P” value in series [5] was below 1e-05 s⁻¹.
AUAAAAGCGCCAGAACUACAGAAAUGUAGUUGACGAGGAGGAGGUUUAUCGCAUUUACAGCGGAUGCCUCCAAA [A52C U57A G59A]: in series [1], the “self-cleavage kobs at 40 uM GlcN6P” value was below 1e-05 s⁻¹.
Consider AUAAAAGCGCCAGAACUACAGAAAUGUAGUUGACGAGGAGGAGGUUUAUCGUAUUUUCGGCGGAUGCCUCGAAA [A52U C71G], for which, in series [1], the “self-cleavage kobs at 40 uM GlcN6P” value was below 1e-05 s⁻¹. Further, in series [2], the “self-cleavage kobs at 640 uM GlcN6P” value came out at 3.14e-05 ± 1.3e-05 s⁻¹. The “self-cleavage kobs at 2500 uM GlcN6P” value in series [5] turned out to be 5.28e-05 ± 9.2e-06 s⁻¹. In series [4], the “self-cleavage kobs at 10000 uM GlcN6P” value came out at 8.19e-05 ± 1e-05 s⁻¹.
Take AUAAAAGCGCCAGAACUACAGAAAUGUAGUUGACGAGGAGGAGGUUUAUCGCAUUUUCGGCGGAUGACUCCAAA [A52C C67A]: in series [1], the “self-cleavage kobs at 40 uM GlcN6P” value is below 1e-05 s⁻¹.
On the same count and under the same terms, under AUAAAAGCGCCAGAACUACAGAAAUGUAGUUGACGAGGAGGAGGUUUAUCGGAUUUUCGACGGAGGCCUCUAAA [A52G G60A U65G C71U] stands below 1e-05 s⁻¹; under AUAAAAGCGCCAGAACUACAGAAAUGUAGUUGACGAGGAGGAGGUUUAUCGUAUUUUCUGCGGAUGCCACCAAA [A52U G59U U69A], below 1e-05 s⁻¹.
As to AUAAAAGCGCCAGAACUACAGAAAUGUAGUUGACGAGGAGGAGGUUUAUCGGAUUUUCAGCGCAUGCCUCCAAA [A52G G59A G63C], in series [1], the “self-cleavage kobs at 40 uM GlcN6P” value is below 1e-05 s⁻¹. Besides, in series [4], the “self-cleavage kobs at 10000 uM GlcN6P” value is below 1e-05 s⁻¹.
Regarding AUAAAAGCGCCAGAACUACAGAAAUGUAGUUGACGAGGAGGAGGUUUAUCGUAUUUUCGGCGGUUGCCUCCAAA [A52U A64U], in series [1], the “self-cleavage kobs at 40 uM GlcN6P” value is below 1e-05 s⁻¹. In series [2], the “self-cleavage kobs at 640 uM GlcN6P” value is below 1e-05 s⁻¹. The “self-cleavage kobs at 160 uM GlcN6P” value in series [3] was below 1e-05 s⁻¹. The “self-cleavage kobs at 10000 uM GlcN6P” value in series [4] was below 1e-05 s⁻¹.
Turning to AUAAAAGCGCCAGAACUACAGAAAUGUAGUUGACGAGGAGGAGGUUUAUCGUAUUUUCGGCGGCUGCCUCCAAA [A52U A64C], the “self-cleavage kobs at 40 uM GlcN6P” value in series [1] is below 1e-05 s⁻¹. In addition, the “self-cleavage kobs at 640 uM GlcN6P” value in series [2] is below 1e-05 s⁻¹. Moreover, the “self-cleavage kobs at 160 uM GlcN6P” value in series [3] was below 1e-05 s⁻¹. Besides, the “self-cleavage kobs at 2500 uM GlcN6P” value in series [5] was below 1e-05 s⁻¹. For the same variant, the “self-cleavage kobs at 10000 uM GlcN6P” value in series [4] is below 1e-05 s⁻¹.
Regarding AUAAAAGCGCCAGAACUACAGAAAUGUAGUUGACGAGGAGGAGGUUUAUCGGAUUUUCGGCGGAUGCCUCUAAA [A52G C71U], the “self-cleavage kobs at 40 uM GlcN6P” value in series [1] amounted to 2.74e-05 ± 6e-06 s⁻¹. The “self-cleavage kobs at 640 uM GlcN6P” value in series [2] came to 0.000293 ± 2.7e-05 s⁻¹. Moreover, the “self-cleavage kobs at 160 uM GlcN6P” value in series [3] came out at 7.83e-05 ± 8.6e-06 s⁻¹. Also, the “self-cleavage kobs at 2500 uM GlcN6P” value in series [5] came out at 0.00078 ± 0.00015 s⁻¹. Further, the “self-cleavage kobs at 10000 uM GlcN6P” value in series [4] is 0.00138 ± 0.00012 s⁻¹.
Regarding AUAAAAGCGCCAGAACUACAGAAAUGUAGUUGACGAGGAGGAGGUUUAUCGUAUUUUCGGCAGAUGCCUCCAAA [A52U G62A], in series [1], the “self-cleavage kobs at 40 uM GlcN6P” value was below 1e-05 s⁻¹.
Consider AUAAAAGCGCCAGAACUACAGAAAUGUAGUUGACGAGGAGGAGGUUUAUCGUAUUUUCGGCCGAUGCCUCCAAA [A52U G62C], for which the “self-cleavage kobs at 40 uM GlcN6P” value in series [1] is below 1e-05 s⁻¹. The “self-cleavage kobs at 2500 uM GlcN6P” value in series [5] is below 1e-05 s⁻¹. The “self-cleavage kobs at 10000 uM GlcN6P” value in series [4] was below 1e-05 s⁻¹.
